From PubChem BioAssay (Tox21)
Where “and” joins values, the source holds several entries; their conditions need not be identical. Identical values can stand only once. The inconclusive results got no clear call from the source; some entries with a clear call stand among them for comparison. Where the call is inconclusive, the potency comes from a doubtful curve fit. Calls of active or inactive are those of the source. Calls come from the whole dose curve; as a rule, active = well fitted inhibition curve with a large enough effect in the repeat runs; inconclusive = weak or mixed curves; inactive = no such curve, though single readings can be large or run the other way.

assay: qHTS assay to identify small molecule antagonists of the thyroid receptor (TR) signaling pathway (AID 743065); conditions: GH3.TRE-Luc, T3-stimulated luciferase inhibition, 23.5 h; series mostly up to 70.3 µM; note: nearly all actives have a fitted effect of over 55% in size
From the text: U.S. Tox21 Program National Center for Advancing Translational Sciences [NCATS] NIH Chemical Genomics Center [NCGC] U.S. Environmental Protection Agency [EPA] National Institutes of Environmental Health Sciences [NIEHS] National Toxicology Program [NTP] U.S. Food and Drug Administration [FDA] Tox21 Assay Overview: Thyroid receptor (TR), a nuclear hormone receptor, plays an important role in development, proliferation, differentiation, metabolism, brain function, and cardiovascular system. […] To profile the Tox21 10K compound library in TR signaling, a cell-based GH3-TRE-Luc assay (GH3.TRE-Luc cell line, developed by the laboratory of Dr. Albertinka J. Murk, Wageningen University) was used to measure the inhibition of TR. GH3 (rat pituitary tumor) cells stably expressing a TR activity sensor consisting of two TR response elements and a luciferase reporter gene.
Tox21 Assay Protocol Summary: GH3.TRE-Luc cells were dispensed at 1500 cells/4 uL/well into 1536-well white solid bottom plates using a Multidrop Combi dispenser (Thermo Fisher Scientific Inc., Waltham, MA). After the assay plates were incubated at 37 C for 4 hours, 23 nL of library compound or DMSO controls was transferred to the assay plates by a pintool station (Kalypsys, San Diego, CA), followed by addition of 1 ul of T3 (1 nM, final concentration in the wells) to stimulate TR transactivation. The assay plates were incubated at 37 C for 23.5 h, and then 1 uL of CellTiter-Fluor reagent (Promega, Madision, WI) of measuring cytotoxicity was added to each well using a Bioraptr Flying Reagent Dispenser (FRD) workstation (Beckman Coulter, Indianapolis, IN, USA). The plates were incubated at 37 C and 5% CO2 for additional 30 min, and fluorescence intensity was measured by a ViewLux plate reader (PerkinElmer, Shelton, CT). For measuring luciferase reporter gene activity, 4 uL of ONE-Glo Luciferase Assay reagent (Promega) was added to each well using a Bioraptr FRD (Beckman Coulter), followed by 30 min incubation at room temperature. The luminescence intensity of plates was recorded by a ViewLux plate reader (PerkinElmer, Shelton, CT).
Potency is the fitted concentration of half-maximal effect; tags give direction and shape of the fitted curve.

| SMILES | Potency |
| --- | --- |
| Cc1nc(-c2ccc3c(c2)CCN(CCC2CCC(NC(=O)/C=C/c4ccc(F)cc4)CC2)CC3)no1 (stereo not given) | inconclusive: 4.87 µM [inhibitor, partial curve] |
| Cc1cc(O)c(C(C)C)cc1Cl | inconclusive: 68.6 µM [inhibitor, single point] |
| COc1cc(/C=C/C(=O)CC(=O)/C=C/c2ccc(O)c(OC)c2)ccc1O | inconclusive: 33.5 µM [inhibitor, single point] |
| Cc1cc(Cc2ccc(N)c(C)c2)ccc1N | inactive |
| CC1=C(CC(=O)O)c2cc(F)ccc2/C1=C\c1ccc(S(C)=O)cc1 (stereo not given) | inactive |
| CCN(CC)c1ccc2c(C)cc(=O)oc2c1 | inconclusive: 27.5 µM [inhibitor, full curve] and inconclusive: 68.6 µM [inhibitor, single point] |
| CCCCCCCCCOC(=O)c1ccc(O)cc1 | inconclusive: 26.9 µM [inhibitor, single point] |
| Oc1ccc(Cl)cc1C1CCCC1 | inconclusive: 77 µM [inhibitor, single point] |
| C#CC1(O)CC[C@H]2[C@@H]3CCC4=CCCC[C@@H]4[C@H]3CC[C@@]21C (stereo not given in full) | inconclusive: 12.7 µM [inhibitor] and active: 30.6 µM |
| CCn1c2ccccc2c2cc(N)ccc21 | inconclusive: 21.5 µM [inhibitor, partial curve] and inconclusive: 68.6 µM [inhibitor, single point] |
| Cc1ccc(C(C)(C)C)c(O)c1 | inconclusive: 74.5 µM [inhibitor, single point] |
| CN(C)c1ccc(SC#N)cc1 | inconclusive: 61.1 µM [inhibitor] |
| CCCCCCCOC(=O)c1ccc(O)cc1 | inconclusive: 68.7 µM [inhibitor, single point] |
| CCCC(=O)c1cc(O)c(O)cc1O | active: 61.1 µM |
| Cc1ccc2nc(-c3ccc(N)cc3)sc2c1S(=O)(=O)O | inconclusive: 33.8 µM [inhibitor, single point] |
| Oc1ccc(-c2ccccc2)c(Cl)c1 | inconclusive: 68.6 µM [inhibitor, single point] |
| N#CSCSc1nc2ccccc2s1 | active: 0.864 µM |
| O=C(O)c1ccc2c(c1)C(=O)OC2=O | inactive |
| CC(C)(c1ccc(O)cc1)c1ccc(O)cc1 | inconclusive: 67.8 µM [inhibitor, single point] |
| CCCCCCOC(=O)c1ccc(O)cc1 | inconclusive: 68.7 µM [inhibitor, single point] |

| SMILES | Potency |
| --- | --- |
| CCC(C)(C)c1cc(O)c(C(C)(C)CC)cc1O | inconclusive: 24.3 µM [inhibitor, partial curve] |
| O=C1OC2(c3ccccc31)c1cc(Br)c(O)c(Br)c1Oc1c2cc(Br)c(O)c1Br | inconclusive: 56 µM [inhibitor, single point] |
| CN(C)C(=S)SC(=S)N(C)C | active: 1.68 µM and active: 1.57 µM and active: 306 nM |
| c1ccc(Nc2cccc3ccccc23)cc1 | inconclusive: 68.6 µM [inhibitor, single point] |
| CC(C)(c1cc(Br)c(OCCO)c(Br)c1)c1cc(Br)c(OCCO)c(Br)c1 | active: 9.47 µM |
| Nc1nc(N)c2nc(-c3ccccc3)c(N)nc2n1 | inconclusive: 33.5 µM [inhibitor, single point] |
| CN(C)C(=O)C1(N2CCCCC2)CCN(CC[C@@]2(c3ccc(Cl)c(Cl)c3)CN(C(=O)c3ccccc3)CCO2)CC1 | active: 4.54 µM |
| CCN(CC)C(=S)SSC(=S)N(CC)CC | inconclusive: 47.3 nM [inhibitor, full curve, poor fit] and inconclusive: 38.6 nM [inhibitor, full curve, poor fit] and inconclusive: 31.4 µM [inhibitor] |
| COc1ccc(C(Cl)=C(c2ccc(OC)cc2)c2ccc(OC)cc2)cc1 | active: 11.9 µM and active: 6.08 µM and active: 7.7 µM |
| CCCCC(CC)COC(=O)/C=C/c1ccc(OC)cc1 (stereo not given) | inconclusive: 29.8 µM [inhibitor, partial curve, poor fit] and inconclusive: 68.2 µM [inhibitor, single point] |
| CC[C@]12CCCN3CCc4c(n(c5ccccc45)[C@@](O)(C(=O)OC)C1)[C@@H]32 | inconclusive: 33.5 µM [inhibitor, single point] and inconclusive: 27.3 µM [inhibitor] |
| O=C1CCCCCCCCCCCCCC1 | inconclusive: 61.1 µM [inhibitor, single point] |
| CCN=c1cc2oc3cc(NCC)c(C)cc3c(-c3ccccc3C(=O)OCC)c-2cc1C | active: 609 nM and active: 1.09 µM |
| O=C(O)CS | inconclusive: 69.1 µM [inhibitor, single point] |
| CC(C)(C)c1cccc(C(C)(C)C)c1O | inconclusive: 24.3 µM [inhibitor, full curve] |
| CCCCCCCCOC(=O)c1ccc(O)cc1 | inconclusive: 60.9 µM [inhibitor, single point] and inconclusive: 68.6 µM [inhibitor, single point] |
| On1ccccc1=S | active: 0.855 µM |
| CC1=C(/C=C/C(C)=C/C=C/C(C)=C\C(=O)O)C(C)(C)CCC1 | active: 68.8 µM |
| CCOC(=O)[C@H](CCc1ccccc1)N[C@@H](C)C(=O)N1Cc2ccccc2C[C@H]1C(=O)O | inconclusive: 34.6 µM [inhibitor, partial curve] |
| Clc1ccc(C(c2ccccc2Cl)C(Cl)Cl)cc1 (stereo not given) | inconclusive: 33.5 µM [inhibitor, single point] and inconclusive: 68.6 µM [inhibitor] |
